{"source": "patent US11814387B2", "about": "“Cyclic amide-containing pyridyl xanthines as A2B antagonists” (Purnovate, Inc., priority 2021, dated 2023)", "note": "The name of at least one read-out is uncertain."}
{"target": "T1, A2B adenosine receptor (Homo sapiens, UniProt P29275)", "T1 construct": "An endogenous A2B adenosine receptor coupled to cyclic AMP generation in human embryonic kidney (HEK 293) cells; endogenous in cells; host or cells: HEK 293", "T1 sequence (P29275 1-332)": "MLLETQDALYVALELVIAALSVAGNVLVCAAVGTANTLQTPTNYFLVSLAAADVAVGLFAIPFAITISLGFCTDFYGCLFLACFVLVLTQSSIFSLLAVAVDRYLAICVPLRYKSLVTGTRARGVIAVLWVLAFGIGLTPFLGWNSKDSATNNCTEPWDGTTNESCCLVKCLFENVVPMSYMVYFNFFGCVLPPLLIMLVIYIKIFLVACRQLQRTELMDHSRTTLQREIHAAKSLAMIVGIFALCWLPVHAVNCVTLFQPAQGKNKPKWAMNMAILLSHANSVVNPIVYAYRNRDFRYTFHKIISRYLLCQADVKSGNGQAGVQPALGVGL", "test": "A2B antagonism: percent inhibition of NECA (cyclic AMP generation in HEK 293 cells, per Cooper et al. 1997)", "assay_type": "cell-based", "conditions": "compound at 100 nM or 111 nM"}
{"smiles": "CCCn1c(=O)n(CCCOC)c(=O)c2[nH]c(-c3ccc(N(CCCN4CCCC4=O)C(=O)c4ccc(Cl)nc4)nc3)nc21", "note": "[Example 27, 8-(6-{N-[3-(2-Oxo-1-pyrrolidinyl)propyl](6-chloro-3-pyridyl)carbonylamino}-3-pyridyl)-1-(3-methoxypropyl)-3-propylxanthine]", "% Inhibition of NECA (5′-N-ethylcarboxamidoadenosine)": "+++ (67% to 100% = +++)"}
{"smiles": "CCCn1c(=O)n(CCOC)c(=O)c2[nH]c(-c3ccc(N(CCCN4CCCC4=O)C(=O)c4ccc(Cl)nc4)nc3)nc21", "note": "[Example 28, 8-(6-{N-[3-(2-Oxo-1-pyrrolidinyl)propyl](6-chloro-3-pyridyl)carbonylamino}-3-pyridyl)-1-(2-methoxyethyl)-3-propylxanthine]", "% Inhibition of NECA (5′-N-ethylcarboxamidoadenosine)": "+++ (67% to 100% = +++)"}
{"smiles": "O=C1CCCN1CCCN(C(=O)c1cccc(F)c1)c1ccc(-c2nc3c([nH]2)c(=O)n(C2CC2)c(=O)n3C2CC2)cn1", "note": "[Example 29, 8-(6-{[3-(2-Oxo-1-pyrrolidinyl)propyl](3-fluorophenyl)carbonylamino}-3-pyridyl)-1,3-dicyclopropylxanthine]", "% Inhibition of NECA (5′-N-ethylcarboxamidoadenosine)": "+ (1% to 33% = +)"}
{"smiles": "CCCn1c(=O)n(CCOC)c(=O)c2[nH]c(-c3ccc(N(CCCN4CCCC4=O)C(=O)c4cccc(F)c4)nc3)nc21", "note": "[Example 30, 8-(6-{[3-(2-Oxo-1-pyrrolidinyl)propyl](3-fluorophenyl)carbonylamino}-3-pyridyl)-1-(2-methoxyethyl)-3-propylxanthine]", "% Inhibition of NECA (5′-N-ethylcarboxamidoadenosine)": "+++ (67% to 100% = +++)"}
{"smiles": "CCCn1c(=O)n(CCCN2CCCC2=O)c(=O)c2[nH]c(-c3ccc(N(CC)C(=O)c4ccc(F)nc4)nc3)nc21", "note": "[Example 31, 8-{6-[N-(ethyl)[6-fluoro-3-pyridyl]carbonylamino]-3-pyridyl}-1-[3-(2-oxo-1-pyrrolidinyl)propyl]-3-propylxanthine]", "% Inhibition of NECA (5′-N-ethylcarboxamidoadenosine)": "+ (1% to 33% = +)"}
{"smiles": "CCCn1c(=O)n(CCCN2CCCC2=O)c(=O)c2[nH]c(-c3ccc(N(CC)C(=O)c4ccc(F)cc4)nc3)nc21", "note": "[Example 32, 8-{6-[N-(ethyl)[4-fluorophenyl]carbonylamino]-3-pyridyl}-1-[3-(2-Oxo-1-pyrrolidinyl)propyl]-3-propylxanthine]", "% Inhibition of NECA (5′-N-ethylcarboxamidoadenosine)": "+ (1% to 33% = +)"}
{"smiles": "CCCn1c(=O)n(CCCOC)c(=O)c2[nH]c(-c3ccc(N(CC4CC(=O)N(C)C4)C(=O)c4ccc(F)cc4)nc3)nc21", "note": "(stereo not drawn) [Example 33, 8-(6-{[(1-Methyl-5-oxo-3-pyrrolidinyl)methyl](4-fluorophenyl)carbonylamino}-3-pyridyl)-1-(3-methoxypropyl)-3-propylxanthine]", "% Inhibition of NECA (5′-N-ethylcarboxamidoadenosine)": "+ (1% to 33% = +)"}
{"smiles": "CCCn1c(=O)n(C2CC2)c(=O)c2[nH]c(-c3ccc(N(CC4CC(=O)N(C)C4)C(=O)c4ccc(F)cc4)nc3)nc21", "note": "(stereo not drawn) [Example 34, 8-(6-{[(1-Methyl-5-oxo-3-pyrrolidinyl)methyl](4-fluorophenyl)carbonylamino}-3-pyridyl)-1-cyclopropyl-3-propylxanthine]", "% Inhibition of NECA (5′-N-ethylcarboxamidoadenosine)": "+ (1% to 33% = +)"}
{"smiles": "CN1CC(CN(C(=O)c2ccc(F)cc2)c2ccc(-c3nc4c([nH]3)c(=O)n(C3CC3)c(=O)n4C3CC3)cn2)CC1=O", "note": "(stereo not drawn) [Example 35, 8-(6-{[(1-Methyl-5-oxo-3-pyrrolidinyl)methyl](4-fluorophenyl)carbonylamino}-3-pyridyl)-1,3-dicyclopropylxanthine]", "% Inhibition of NECA (5′-N-ethylcarboxamidoadenosine)": "+ (1% to 33% = +)"}
